Test results reported in the supplement of paper PMC8183993.
“And” between values parts separate entries of the source, which are not always exact repeats. Equal values may be shown once. Where a name gives a salt, the structure may show the parent alone. ± gives the standard deviation of the averaged measurements. In all, about 3,200 compounds were measured (“nuclei count (viability) relative to DMSO”: median about 99, lowest 2% from about 16 on). Some of the results follow.

What follows are molecules tested on U2OS (assay: nuclei count (viability) relative to DMSO (% of DMSO); higher = more viable cells). Conditions: 10 µM; 24 h.
Description: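 Primary image-based screen in U2OS cells: compounds at 10 uM for 24 h, then a 1 h o-propargyl-puromycin (OPP) pulse, click labelling, and high-throughput microscopy. Mean cytoplasmic OPP intensity and nuclei count were normalised to DMSO wells within each plate (DMSO = 100) and averaged over triplicate plates.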

| SMILES | nuclei count |
| --- | --- |
| CCCCC1=NC2(CCCC2)C(=O)N1Cc1ccc(-c2ccccc2-c2nnn[nH]2)cc1 [Irbesartan (Avapro)] | 101 |
| CC1(C)OC2=C(C(=O)c3ccccc3C2=O)[C@H](NCc2ccccc2)[C@@H]1O | 14.7 |
| O=[N+]([O-])c1ccc2c(c1)S(=O)(=O)C=C2 [Stattic] | 14.1 |
| N[C@@H]1CCCCN(c2c(F)cc3c(=O)c(C(=O)O)cn(C4CC4)c3c2Cl)C1 [Besifloxacin HCl (Besivance)] | 95.8 |
| CCOc1ccccc1OCC1CNCCO1 (centres undefined) [Viloxazine hydrochloride] | 99.8 |
| CC[C@H]1OC(=O)[C@H](C)[C@@H](O[C@H]2C[C@@](C)(OC)[C@@H](O)[C@H](C)O2)[C@H](C)[C@@H](O[C@@H]2O[C@H](C)C[C@H](N(C)C)[C@H]2O)[C@](C)(OC)C[C@@H](C)C(=O)[C@H](C)[C@@H](O)[C@]1(C)O [Clarithromycin (Biaxin, Klacid)] | 108 |
| CC[C@H]1OC(=O)[C@H](C)[C@@H](O[C@H]2C[C@@](C)(OC)[C@@H](O)[C@H](C)O2)[C@H](C)[C@@H](O[C@@H]2O[C@H](C)C[C@H](N(C)C)[C@H]2O)[C@](C)(OC)C[C@@H](C)C(=O)[C@H](C)[C@@H](O)[C@]1(C)O [Clarithromycin] | 105 |
| CNC(=O)[C@@H](Cc1ccccc1)N(C)C(=O)[C@@H](Cc1ccc2ccccc2c1)N(C)C(=O)/C=C/CC(C)(C)N [Tabimorelin] | 101 |
| NS(=O)(=O)c1cc2c(cc1Cl)N=CNS2(=O)=O [Chlorothiazide] | 99.6 |
| CN[C@H](CC(C)C)C(=O)N[C@H]1C(=O)N[C@@H](CC(N)=O)C(=O)N[C@H]2C(=O)N[C@H]3C(=O)N[C@H](C(=O)N[C@H](C(=O)O)c4cc(O)cc(O)c4-c4cc3ccc4O)[C@H](O)c3ccc(c(Cl)c3)Oc3cc2cc(c3O[C@@H]2O[C@H](CO)[C@@H](O)[C@H](O)[C@H]2O[C@H]2C[C@](C)(N)[C@H](O)[C@H](C)O2)Oc2ccc(cc2Cl)[C@H]1O [Vancomycin HCl (Vancocin)] | 97.5 |
| CN[C@H](CC(C)C)C(=O)N[C@H]1C(=O)N[C@@H](CC(N)=O)C(=O)N[C@H]2C(=O)N[C@H]3C(=O)N[C@H](C(=O)N[C@H](C(=O)O)c4cc(O)cc(O)c4-c4cc3ccc4O)[C@H](O)c3ccc(c(Cl)c3)Oc3cc2cc(c3O[C@@H]2O[C@H](CO)[C@@H](O)[C@H](O)[C@H]2O[C@H]2C[C@](C)(N)[C@H](O)[C@H](C)O2)Oc2ccc(cc2Cl)[C@H]1O [Vancomycin hydrochloride] | 102 |
| COc1cc2ncnc(Oc3cccc(NC(=O)Nc4cc(C(C)(C)C(F)(F)F)on4)c3)c2cc1OC | 99.7 ± 4.1 |
| O=c1c(O)c(-c2ccc(O)c(O)c2)oc2cc(O)ccc12 [Fisetin (Fustel)] | 91.7 |
| CNS(=O)(=O)Cc1ccc2[nH]cc(CCN(C)C)c2c1 [Sumatriptan succinate] | 101 ± 4 |
| NCC(=O)Nc1ccc(-n2nc(C(F)(F)F)cc2-c2ccc3c(ccc4ccccc43)c2)cc1 | 34.8 ± 5.6 |
| COc1ccc(-c2nc3cc(C4=NNC(=O)CC4C)ccc3[nH]2)cc1 (centres undefined) [Pimobendan (Vetmedin)] | 85.9 |
| Cc1ccc(S(=O)(=O)n2c(N)nc3ccccc32)cc1 | 99.7 |
| CNC(=O)c1ccc(-c2cnc3ncc(Cc4ccc5ncccc5c4)n3n2)cc1F | 105 |
| CC(C)COCC(CN(Cc1ccccc1)c1ccccc1)N1CCCC1 (centres undefined) [Bepridil hydrochloride] | 101 |
| CC(C)COCC(CN(Cc1ccccc1)c1ccccc1)N1CCCC1 (centres undefined) [Bepridil] | 109 |
| CCC(CC)(CC(=O)Nc1cccc(/C=C/c2nc(C3CCC3)cs2)c1)C(=O)O [Cinalukast] | 103 |
| NC(=O)c1ncn([C@@H]2O[C@H](CO)[C@@H](O)[C@H]2O)n1 [Ribavirin (Copegus)] | 102 |
| NC(=O)c1ncn([C@@H]2O[C@H](CO)[C@@H](O)[C@H]2O)n1 [Ribavirin] | 111 |

| SMILES | nuclei count |
| --- | --- |
| CCOC(=O)[C@H](CCc1ccccc1)N[C@@H](C)C(=O)N1[C@H](C(=O)O)C[C@@H]2CCC[C@@H]21 [Ramipril (Altace)] | 93.2 |
| CCOC(=O)[C@H](CCc1ccccc1)N[C@@H](C)C(=O)N1[C@H](C(=O)O)C[C@@H]2CCC[C@@H]21 [Ramipril] | 107 |
| CCOc1ccc2c(c1)C(C)=CC(C)(C)N2 [Ethoxyquin] | 101 ± 1.2 |
| CCOc1cc([C@@H](CS(C)(=O)=O)N2C(=O)c3cccc(NC(C)=O)c3C2=O)ccc1OC | 102 |
| NS(=O)(=O)c1cc(C(=O)O)c(NCc2ccco2)cc1Cl [Furosemide] | 96.1 |
| CCn1nnc2c(N3CCOCC3)nc(-c3ccc(NC(=O)Nc4ccc(C(=O)N5CCN(C)CC5)cc4)cc3)nc21 | 77.7 |
| O=C(O)C(=O)O.[NH-]C1CCCCC1[NH-].[Pt+2] (centres undefined) [Oxaliplatin (Eloxatin)] | 77.6 |
| CCc1cncnc1N1CCN(Cc2nc3ccc(C(F)(F)F)cc3[nH]2)CC1 | 99.88 ± 0.89 |
| CC1=C(C(=O)OC(C)C)C(c2cccc([N+](=O)[O-])c2)C(C(=O)OC2CN(C(c3ccccc3)c3ccccc3)C2)=C(N)N1 (centres undefined) [Azelnidipine] | 106 |
| Cc1cc(C2CCCCC2)n(O)c(=O)c1 [Ciclopirox ethanolamine] | 63.4 ± 7.6 |
| CCS(=O)(=O)N(C)[C@H]1c2cc(C#N)ccc2OC(C)(C)[C@@H]1O [(-)-[3R,4S]-Chromanol 293B] | 99.2 |
| COc1cc(C(=O)NS(=O)(=O)c2ccccc2C)ccc1Cc1cn(C)c2ccc(NC(=O)OC3CCCC3)cc12 [Zafirlukast] | 114 |
| CCCCCCCCCCCCCCCC(=O)NCCO [Palmitoylethanolamide] | 96.8 |
| CN1CCN(C2=Nc3cc(Cl)ccc3Nc3ccccc32)CC1 [Clozapine] | 101.6 ± 0.41 |
| CO[C@@H](C(=O)N1Cc2[nH]nc(NC(=O)c3ccc(N4CCN(C)CC4)cc3)c2C1)c1ccccc1 | 46.9 |
| O=C(O)c1ccccc1Nc1ccccc1 [N-phenylanthranilic acid] | 103 |
| CC[C@H](C)[C@H](N)C1=N[C@H](C(=O)N[C@@H](CC(C)C)C(=O)N[C@H](CCC(=O)[O-])C(=O)N[C@H](C(=O)N[C@H]2CCCCNC(=O)[C@H](CC(N)=O)NC(=O)[C@@H](CC(=O)[O-])NC(=O)[C@H](Cc3cnc[nH]3)NC(=O)[C@@H](Cc3ccccc3)NC(=O)[C@H]([C@@H](C)CC)NC(=O)[C@@H](CCCN)NC2=O)[C@@H](C)CC)CS1.[Zn+2] [Bacitracin zinc] | 109 |
| C[C@@H]1NC(=O)NC1=O [Methylhydantoin-5-(L)] | 101 |
| CC1CCc2c(N3CCC(O)CC3)c(F)cc3c(=O)c(C(=O)O)cn1c23 (centres undefined) [Nadifloxacin] | 104 |
| CCCc1c(OCCCCc2nnn[nH]2)ccc(C(C)=O)c1O | 102 |
| Cc1ccc(-c2ncc(Cl)cc2-c2ccc(S(C)(=O)=O)cc2)cn1 [Etoricoxib] | 93.8 |
| CC1(C)C(=O)NC2=C1C(=O)C(=O)c1ccccc12 | 40.5 and 19.2 |
| NC12CC3CC(CC(C3)C1)C2 [Adamantamine fumarate] | 105 |

| SMILES | nuclei count |
| --- | --- |
| CC1(C2CCCC2)Cc2cc(OCC(=O)O)c(Cl)c(Cl)c2C1=O (centres undefined) | 102 |
| O=c1c2ccccc2oc2ccccc12 [Xanthone (Genicide)] | 102 |
| CO[C@H]1O[C@@H]2O[C@@]3(C)CC[C@H]4[C@H](C)CC[C@@H]([C@H]1C)[C@@]24OO3 [Artemether (SM-224)] | 86 |
| Cc1[nH]c2ccccc2c1C(Nc1ccccn1)c1ccc(Cl)cc1 (centres undefined) | 93.9 |
| Cc1cc(=O)n(-c2ccccc2)n1C [Antipyrine] | 98.5 |
| CC(C)[C@@H](O)CC[C@@H](C)[C@H]1CC[C@H]2[C@@H]3CC=C4C[C@@H](O)CC[C@]4(C)[C@H]3CC[C@]12C [24(S)-Hydroxycholesterol] | 87.5 |
| Clc1ccc(COC(Cn2ccnc2)c2ccc(Cl)cc2Cl)c(Cl)c1 (centres undefined) [Miconazole] | 103 |
| Nc1ncn([C@H]2C[C@H](O)[C@@H](CO)O2)c(=O)n1 [Decitabine] | 102 |
| NCCCCNCCCN [Spermidine] | 104 |
| NCCCCNCCCN [Spermidine trihydrochloride] | 94.4 |
| CC(C)(C(=O)c1cccnc1)c1cccnc1 [Metyrapone] | 93.2 |
| O=C(Cc1ccc(-c2ccc(OCCN3CCOCC3)cc2)cn1)NCc1ccccc1 | 21.3 |
| CN1CC(=O)NC1=N [Creatinine] | 99.9 |
| CC(=O)Nc1ccc(NC(=S)NC(=O)c2ccc(C(C)(C)C)cc2)cc1 [Tenovin-1] | 95.7 |
| O=c1cc(-c2ccc(O)c(O)c2)oc2cc(O)cc(O)c12 [Luteolin] | 84 |
| CCOC(=O)[C@]12CC1/C(=N\O)c1ccccc1O2 (some centres undefined) | 103 |
| CC(C)/N=c1\cc2n(-c3ccc(Cl)cc3)c3ccccc3nc-2cc1Nc1ccc(Cl)cc1 [Clofazimine] | 101 |
| O=C1Cc2cc(CCN3CCN(c4nsc5ccccc45)CC3)c(Cl)cc2N1 [Ziprasidone  Hydrochloride] | 105 |
| CCN[C@H]1C[C@H](C)S(=O)(=O)c2sc(S(N)(=O)=O)cc21 [Dorzolamide HCl] | 93.9 |
| CCN[C@H]1C[C@H](C)S(=O)(=O)c2sc(S(N)(=O)=O)cc21 [Dorzolamide hydrochloride] | 111 |
| C[N+](C)(C)CCCCCNCC12CC3CC(CC(C3)C1)C2 | 99.1 |
| CCC(C)[C@H](NS(=O)(=O)c1cccc2ccccc12)C(=O)N[C@H](C=O)Cc1c[nH]c2ccccc12 (some centres undefined) | 90.3 |
| CC(=O)N(O)CCCCCNC(=O)CCC(=O)N(O)CCCCCNC(=O)CCC(=O)N(O)CCCCCN [Deferoxamine mesylate] | 83.3 |
